The subject of this assay is TYKNU. As to the kind of experiment: fractional viability relative to vehicle; TYKNU is a high-grade serous ovarian cancer line; higher = less growth inhibition. The note with it: 72 h, genotype: OPA1 knockout (sgOPA1 #2). The procedure, abridged:
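TYKNU control cells or lentiCRISPRv2 knockout derivatives were plated at 500 cells per well in duplicate into drug-stamped 384-well plates holding a ~2100-compound library at 2 or 10 μM. Culture was in RPMI 1640 with 10% FBS at 37 °C in 5% CO2, with 72 h of drug treatment. Viability was measured by Cell Titer Glo luminescence, and the averaged duplicate treatment wells were normalised to duplicate control wells at the same plate position.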

Molecules are shown by their SMILES. Counter-ions that a name gives are not always drawn. In all, about 2,000 compounds were measured (“fractional viability relative to vehicle”: median about 0.92, lowest 2% from about 0.11 on). The list shows a part of the results.

The values below come from the supplement of paper PMC5919970.

Take `CCN(CC)C(=O)/C(C#N)=C/c1cc(O)c(O)c([N+](=O)[O-])c1` [Entacapone]: the fractional viability is, setting by setting: (2uM) 0.795; (10uM) 1.4.
In the case of `COc1cccc2cc(-c3nc([C@H]4CC[C@H](C(=O)O)CC4)n4ncnc(N)c34)[nH]c12`, the fractional viability was determined as 0.597 (2uM) and 0.36 (10uM).
On to `O=C1CCC[C@@H]2[C@H]3CCC[N+]4([O-])CCC[C@@H](CN12)[C@@H]34` (stereo partly specified) [Oxymatrine], for which the fractional viability amounted to 0.991 (2uM) and 0.937 (10uM).
`CCN(CC)CCOC(=O)c1ccc(N)cc1` [Procaine HCl]: the fractional viability reads like this: (2uM) 1.02; (10uM) 1.12.
Take `Clc1ccc(C(Cn2ccnc2)OCc2ccc(Sc3ccccc3)cc2)c(Cl)c1` (stereo unspecified) [Fenticonazole Nitrate]: the fractional viability is, setting by setting: (2uM) 0.933; (10uM) 0.911.
As to `CC[C@H](C)C(=O)O[C@H]1C[C@@H](C)C=C2C=C[C@H](C)[C@H](CC[C@@H]3C[C@@H](O)CC(=O)O3)[C@H]21` [Lovastatin], the fractional viability reads like this: (2uM) 0.879; (10uM) 0.644.
In turn, `COc1cc(C2Oc3cc([C@H]4Oc5cc(O)cc(O)c5C(=O)[C@@H]4O)ccc3OC2CO)ccc1O` (stereo partly specified) [Silymarin] returned a fractional viability (2uM) of 1.1 and a fractional viability (10uM) of 1.07.
`COc1cc(C2Oc3cc([C@H]4Oc5cc(O)cc(O)c5C(=O)[C@@H]4O)ccc3OC2CO)ccc1O` (stereo partly specified) [Silibinin] had a fractional viability (2uM) of 1.18 and a fractional viability (10uM) of 1.15.
Taken in the same sequence, the figures for `O=c1cc(-c2ccccc2)oc2cc(O)c(O)c(O)c12` [Baicalein] were 0.842 and 1.05.
In the same order, the values of `CC(=O)N[C@@H](CS)C(=O)O` [Acetylcysteine] are 1.02 and 1.18.
`C[C@]1(c2nc3c(C(N)=O)cccc3[nH]2)CCCN1` [Veliparib (ABT-888)]: the fractional viability reads like this: (2uM) 1.12; (10uM) 1.12.
As for `O=C(O)Cc1cccc(OCCCN(Cc2cccc(C(F)(F)F)c2Cl)CC(c2ccccc2)c2ccccc2)c1`, the fractional viability was found to be 0.952 (2uM) and 0.951 (10uM).
Regarding `NC(=O)OCC(COC(N)=O)c1ccccc1` [Felbamate], the fractional viability was determined as 1.06 (2uM) and 0.93 (10uM).
For `CCC[S+]([O-])c1ccc2[nH]c(NC(=O)OC)nc2c1` (stereo unspecified) [Albendazole Oxide], the fractional viability was determined as 1.1 (2uM) and 0.64 (10uM).
On to `Cc1ccnc(NS(=O)(=O)c2ccc(N)cc2)n1` [Sulfamerazine], for which the fractional viability is, setting by setting: (2uM) 1.07; (10uM) 0.897.
As for `CNC[C@H](O)[C@@H](O)[C@H](O)[C@H](O)CO` [Meglumine], the fractional viability by setting is: (2uM) 1.2; (10uM) 1.07.
With `COC(=O)N[C@H](C(=O)N[C@@H](Cc1ccccc1)[C@@H](O)CN(Cc1ccc(-c2ccccn2)cc1)NC(=O)[C@@H](NC(=O)OC)C(C)(C)C)C(C)(C)C` [Atazanavir Sulfate], the fractional viability runs as follows: (2uM) 1.14; (10uM) 0.875.
In the case of `COC(=O)Nc1ccc(-c2nc(N3CCOCC3)c3cnn(C4CCN(C(=O)OC)CC4)c3n2)cc1`, the fractional viability was found to be 0.709 (2uM) and 0.421 (10uM).
In the same order, the values of `CCCCNc1cc(C(=O)O)cc(S(N)(=O)=O)c1Oc1ccccc1` [Bumetanide] are 1.1 and 0.973.
As for `C[C@H](Cn1cnc2c(N)ncnc21)OCP(=O)(O)O` [Tenofovir], the fractional viability was 1.87 (2uM) and 1.52 (10uM).
Take `CC(C)n1c(/C=C/C(O)CC(O)CC(=O)O)c(-c2ccc(F)cc2)c2ccccc21` (stereo unspecified) [Fluvastatin Sodium]: the fractional viability by setting is: (2uM) 0.763; (10uM) 0.639.
With `O=c1ccn([C@@H]2O[C@H](CO)[C@@H](O)[C@H]2O)c(=O)[nH]1` [Uridine], the fractional viability worked out at 0.946 (2uM) and 1.18 (10uM).
In the same order, the values of `CC1(C)S[C@@H]2[C@H](NC(=O)C(C(=O)O)c3ccccc3)C(=O)N2[C@H]1C(=O)O` (stereo partly specified) [Carbenicillin disodium] are 0.77 and 0.874.
In the case of `CC(C)(C)C(=O)C(Oc1ccc(Cl)cc1)n1ccnc1` (stereo unspecified) [Climbazole], the fractional viability by setting is: (2uM) 0.924; (10uM) 0.823.
Taken in the same sequence, the figures for `CC(C)N(CCCNC(=O)Nc1ccc(C(C)(C)C)cc1)C[C@H]1O[C@@H](n2cc(Br)c3c(N)ncnc32)[C@H](O)[C@@H]1O` were 1.04 and 1.06.
With `Cc1cc(NS(=O)(=O)c2ccc(N)cc2)no1` [Sulfamethoxazole], the fractional viability turned out to be 1.27 (2uM) and 1.17 (10uM).
The compound `Nc1[nH]nc2nnc(-c3c(-c4ccccc4)nn4ccccc34)cc12` displayed a fractional viability (2uM) of 0.889 and a fractional viability (10uM) of 1.07.
As to `CCOC(=O)n1ccn(C)c1=S` [Carbimazole], the fractional viability amounted to 0.96 (2uM) and 0.912 (10uM).
The compound `COc1cc(N2CCC(N)CC2)ccc1Nc1ncc(Cl)c(-c2c[nH]c3ccccc23)n1` had a fractional viability (2uM) of 0.672 and a fractional viability (10uM) of 0.177.
`CC1(C)O[C@@H]2C[C@H]3[C@@H]4CCC5=CC(=O)C=C[C@]5(C)[C@H]4[C@@H](O)C[C@]3(C)[C@]2(C(=O)CO)O1` [Desonide] had a fractional viability (2uM) of 0.977 and a fractional viability (10uM) of 1.08.
On to `O=C(O)c1ccc2c(c1)nc(Nc1cccc(Cl)c1)c1ccncc12` [CX-4945 (Silmitasertib)], for which the fractional viability is, setting by setting: (2uM) 0.773; (10uM) 0.585.
As to `NCCCCCNCC12CC3CC(CC(C3)C1)C2` [IEM 1754 dihydrobroMide], the fractional viability reads like this: (2uM) 0.848; (10uM) 0.99.
As to `O=C(/C=C/c1ccc(O)c(O)c1)c1ccc(O)cc1O` [Butein], the fractional viability (2uM) came out at 0.74 and the fractional viability (10uM) amounted to 0.559.
On to `CC[C@H]1OC(=O)C[C@@H](O)[C@H](C)[C@@H](O[C@@H]2O[C@H](C)[C@@H](O[C@H]3C[C@@](C)(O)[C@@H](O)[C@H](C)O3)[C@H](N(C)C)[C@H]2O)[C@@H](CC=O)C[C@@H](C)C(=O)/C=C/C(C)=C/[C@@H]1CO[C@@H]1O[C@H](C)[C@@H](O)[C@@H](OC)[C@H]1OC` [Tylosin tartrate], for which the fractional viability runs as follows: (2uM) 1.7; (10uM) 1.55.
In the same order, the values of `O=C(CCCCCCC(=O)Nc1ccccc1)NO` [Vorinostat (SAHA, MK0683)] are 0.589 and 0.233.
`COC(=O)C1=C(C)NC(C)=C(C(=O)OC2CCCN(Cc3ccccc3)C2)C1c1cccc([N+](=O)[O-])c1` (stereo unspecified) [Benidipine HCl] came in with a fractional viability (2uM) of 1.03 and a fractional viability (10uM) of 0.739.
In the case of `CCNC(=O)CCC/C=C\C[C@@H]1[C@@H](/C=C/[C@@H](O)CCc2ccccc2)[C@H](O)C[C@@H]1O` [Bimatoprost], the fractional viability came out at 0.972 (2uM) and 1.1 (10uM).
As for `COc1ccc(S(=O)(=O)Nc2cccnc2Nc2ccc(O)cc2)cc1`, the fractional viability came out at 0.791 (2uM) and 0.436 (10uM).
Consider `Cc1ccc(NC(=O)c2cccc(N(C)C)c2)cc1NC(=O)c1ccc(O)cc1`, for which the fractional viability reads like this: (2uM) 1.14; (10uM) 1.09.
Turning to `O=C1NCCc2[nH]c(-c3ccncc3)cc21`, the fractional viability stood at 0.962 (2uM) and 0.746 (10uM).
For `O=c1cc(-c2ccccc2)oc2cc(O)cc(O)c12` [Chrysin], the fractional viability reads like this: (2uM) 1.32; (10uM) 1.12.
In the same order, the values of `Cc1cc(OCCCS(C)(=O)=O)cc(C)c1-c1cccc(COc2ccc3c(c2)OC[C@H]3CC(=O)O)c1` are 1.21 and 0.85.
Consider `CCN(CC)C(=S)SSC(=S)N(CC)CC` [Disulfiram], for which the fractional viability runs as follows: (2uM) 0.302; (10uM) 0.205.
